The source gives no read counts; variants with many changes may rest on few reads.
B1: CPEB3 Ribozyme (parent)
chain: UAACAGGGGGCCACAGCAGAAGCGUUCACGUCGCAGCCCCUGUCAGAUUCUGGUGAAUCUGCGAAUUCUGCUGUAUAUCUC

Variants of: B1
Experiment: self-cleavage, relative activity (ratio to wild type); higher = more cleavage; in vitro, sequencing
Outline: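 Barcoded CPEB3 ribozyme mutants, produced by rounds of error-prone PCR, self-cleaved while being transcribed with T7 RNA polymerase for 5 hours at 37°C and during a subsequent 15 min DNase I step before EDTA was added. Sequencing of template-switched cDNA on Illumina gave cleaved and total reads, and DNA sequencing assigned barcodes to variants. Each variant's relative activity is its cleaved/total read fraction divided by the unmutated ribozyme's fraction, averaged across three batches. A variant needed a minimum of 5 reads.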

Variant | self-cleavage
A3U U60C U67C | 0.28
A3U A35G U67A | 1.18
A3U G16A A64U U72C | 0.13
A3U A28U G42A | 0.64
A3U A13U U26A A45G A57G | 0.9
A3U G30C C38A U54A | 0.28
A3G U26C A56G U66A U69A | 0.14
C4A C12G A45G U69A | 0.54
A3U U26A U43A | 0.51
A3U A20G A21G | 0.64
A3U C12U G19C U51C G52C U67C | 0.1
A3G U25A U26C U43A U58C | 0.19
A3U C11G U51C | 0.69
A3G U25A U43C A75U U80C | 0.05
A5C A15G A20G A35U G61A U78C | 0.04
A3U A57G U69C U72C U80C | 0.41
C4U U54C U67C | 0.35
A3G U25C U31C G46C U49C | 0.02
A3G U41A U54A A56G | 0.1
C4G A21G U60C U66G C68G | 0.19
A3U C11U U31C U48C A65G | 0.06

Variant | self-cleavage
A3U A15C U69C | 0.68
A3U A64U U74G | 0.32
A3U C12U G30C C79A | 0.33
A3U A5G A57G U69C | 0.1
C4A U26A U41C U51C | 0.76
A3U U41C G73A | 1.24
A3G U26C A64U | 0.16
C4A A18G U51C | 0.87
A3G U26C U41C | 0.69
A3U A5U U41A U54C | 0.14
A5C A13U G24C U26C C39U | 0.24
A3G U43A A45G | 1.06
A3U U31C C59G G73C | 0.17
A3U U25G A35G | 0.7
A3G U67A U72C | 0.48
A3G U51A U54C U60A A64U | 0.33
A3G U48C U49C U67C U74C U76C | 0.23
A3G U26C U41G A47G U51A U72C | 0.04
A3U A13G C44G A64C U67A U74A A77G | 0.02
A3U U25A A35U A56U C62U | 0.17
A3G U69C C79A | 0.8

Variant | self-cleavage
A3G U25C U41A A64G U76C | 0.29
C4U G9A U41C A64U | 0.16
A3G U25C G55U | 0.61
A3U A15C A28G U41C A65U U69A U80C | 0.19
C4U C17U U69C | 0.3
A3U A18G U25C A47U U54C | 0.2
A3U A65G G73C | 0.8
A3U A18G U43C U78C | 0.4
A3U C4A A20G G46A A47U A56G U58C | 0.14
A3G U26A G55C | 0.57
A3U G6C G30A A56G U72A U74C | 0.11
A3U A15G U49A A77U U78C | 1
C4U C12U C14U A18U U26C | 0.44
A3U A5G C17U | 0.68
A3G U25C C32U U60C U80A | 0.1
C4U A21G U31C | 0.47
A3U A13G A15G A57G U76C | 0.36
A3U U25C G30C U41C U58A U60C | 0.17
A3U A15G U26A A28C U58C | 0.31
A3U U26C U66C | 0.36
A3G U26A G46A A77U | 0.19

Variant | self-cleavage
C4U G9A U31A | 0.09
A3U G19U U31C U51A A64U U69C | 0.11
A3U C4A A13G C17A U43A U80A | 0.6
A3G U25G A65G U67C U69G | 0.24
A3U A20U G33U C38U U69C A75G U80C | 0.08
A5C A15U A21G U31C G33A U43C A65G | 0.04
A3G U54C A57U G61A A64U | 0.25
A5C A18U A64U | 0.17
A5C A15U A20U C29G C38A | 0.27
A3U A21G A64G | 0.58
A3G U26C A28C A56G | 0.49
C4U U25C U58C A64G | 0.15
A3U G30U U54C A56G A64G | 0.18
A5C A15G A47U U67G | 0.2
A3G U26A G30A | 0.54
C4G A18G U51C A56G U58C U80C | 0.23
A3G U25A C27U | 0.22
A3U A20G U48A U54A A64G | 0.25
A3U C11A U69C | 0.5
C4U G36A U72A U80A | 0.35
A3U A18G U67C U72A U78C | 0.13

Source: the RNAGym collection of RNA variant scans (doi:10.1093/nar/gkz1192)
